# In US8957024B2, “Composition and methods for reducing opioid-induced pruritus” (priority 2011, dated 2015):
# Biological target: T1, Myc-GRPR (Mus musculus, UniProt P21729)
# T1 construct: expressed in transfected cells
# Assay: Receptor internalization assay (ELISA, immunofluorescence staining) in HEK 293 cells: GRPR
# Type: cell-based
# T1 sequence (P21729 whole entry): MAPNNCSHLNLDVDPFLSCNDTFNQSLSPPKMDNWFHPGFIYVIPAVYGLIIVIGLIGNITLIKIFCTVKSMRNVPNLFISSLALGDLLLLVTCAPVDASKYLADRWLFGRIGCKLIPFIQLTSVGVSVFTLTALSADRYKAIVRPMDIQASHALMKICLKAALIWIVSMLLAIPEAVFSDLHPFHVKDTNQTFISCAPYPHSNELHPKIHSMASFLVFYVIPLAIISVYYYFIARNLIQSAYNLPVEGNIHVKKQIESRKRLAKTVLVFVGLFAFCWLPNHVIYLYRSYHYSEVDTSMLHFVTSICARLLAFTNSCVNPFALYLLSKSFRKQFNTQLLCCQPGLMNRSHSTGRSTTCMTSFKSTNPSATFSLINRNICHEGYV
Compound,effect on morphine-induced GRPR internalization (HEK 293 cells co-expressing MOR1D and GRPR),"effect on morphine-induced GRPR internalization (HEK 293 cells co-expressing MOR1D and GRPR, listed as Naloxone)","effect on morphine-induced GRPR internalization (naloxone 10 μM, cells co-expressing MOR1D and GRPR)","agonist-induced GRPR internalization (HEK 293 cells co-expressing MOR1D and GRPR, agonist 1 μM, 30 min)"
C=CCN1CC[C@]23c4c5ccc(O)c4O[C@H]2C(=O)CC[C@@]3(O)[C@H]1C5 [naloxone],inhibited morphine-induced GRPR or MOR1D internalization in a dose-dependent manner,dose-dependently blocked,nearly abolish,
C[C@@H](NC(=O)[C@@H](N)Cc1ccc(O)cc1)C(=O)NCC(=O)N(C)[C@@H](Cc1ccccc1)C(=O)NCCO [DAMGO],,,,can be internalized by DAMGO when co-expressed with MOR1D
